# The supplement of paper PMC8728848
# This is one part of the list.
# Experiments:
# Assay in all cases: glycan array binding signal (z-score within array); higher = stronger binding
# Details in all cases: glycan notation: IUPAC condensed, linker removed
# [1] = biological target: Gal(b1-4)GlcNAc(b1-3)Gal(b1-4)GlcNAc(b1-3)Gal(b1-4)GlcNAc
# Outline: (§1)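 The binding signal is a Z-score computed within each array. Data were drawn from 3228 arrays in the Consortium for Functional Glycomics database, restricted to those with a known protein sequence. Scores were averaged over arrays of the same protein sequence at different concentrations or buffers, and over linkers, and negative values can be taken as non-binding.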
# [2] = biological target: Gal(b1-4)GlcNAc(b1-3)Gal(b1-4)[Fuc(a1-3)]GlcNAc(b1-3)Gal(b1-4)[Fuc(a1-3)]GlcNAc
# Outline: as §1
# [3] = biological target: Gal(b1-4)GlcNAc(b1-3)GalNAc
# Outline: as §1
# [4] = biological target: Gal(b1-4)GlcNAc(b1-3)[Gal(b1-4)GlcNAc(b1-6)]Gal(b1-4)GlcNAc
# Outline: as §1
# [5] = biological target: Gal(b1-4)GlcNAc(b1-3)[GlcNAc(b1-6)]Gal(b1-4)GlcNAc
# Outline: as §1
# [6] = biological target: Gal(b1-4)GlcNAc(b1-6)Gal(b1-4)GlcNAc
# Outline: as §1
# [7] = biological target: Gal(b1-4)GlcNAc(b1-6)Gal(b1-4)GlcNAc(b1-6)GalNAc
# Outline: as §1
# [8] = biological target: Gal(b1-4)GlcNAc(b1-6)GalNAc
# Outline: as §1
# [9] = biological target: Gal(b1-4)GlcNAc(b1-6)[Gal(b1-3)]GalNAc
# Outline: as §1
# Gal3S(b1-3)GalNAc = biological target: Gal3S(b1-3)GalNAc
# Outline: as §1
# Gal3S(b1-3)GlcNAc = biological target: Gal3S(b1-3)GlcNAc
# Outline: as §1
# [10] = biological target: Gal3S(b1-3)[Fuc(a1-4)]GlcNAc
# Outline: as §1
# Gal3S(b1-4)Glc = biological target: Gal3S(b1-4)Glc
# Outline: as §1
# Gal3S(b1-4)Glc6S = biological target: Gal3S(b1-4)Glc6S
# Outline: as §1
# Gal3S(b1-4)GlcNAc = biological target: Gal3S(b1-4)GlcNAc
# Outline: as §1
# Gal3S(b1-4)GlcNAc6S = biological target: Gal3S(b1-4)GlcNAc6S
# Outline: as §1
# [11] = biological target: Gal3S(b1-4)[Fuc(a1-3)]Glc
# Outline: as §1
# Gal3S4S(b1-4)GlcNAc = biological target: Gal3S4S(b1-4)GlcNAc
# Outline: as §1
# Gal3S6S(b1-4)GlcNAc = biological target: Gal3S6S(b1-4)GlcNAc
# Outline: as §1
# Gal3S6S(b1-4)GlcNAc6S = biological target: Gal3S6S(b1-4)GlcNAc6S
# Outline: as §1
# Gal4S(b1-4)GlcNAc = biological target: Gal4S(b1-4)GlcNAc
# Outline: as §1
# Gal4S6S(b1-4)GlcNAc = biological target: Gal4S6S(b1-4)GlcNAc
# Outline: as §1
# Gal6S(b1-4)Glc = biological target: Gal6S(b1-4)Glc
# Outline: as §1
# Gal6S(b1-4)Glc6S = biological target: Gal6S(b1-4)Glc6S
# Outline: as §1
# Gal6S(b1-4)GlcNAc = biological target: Gal6S(b1-4)GlcNAc
# Outline: as §1
# Gal6S(b1-4)GlcNAc6S = biological target: Gal6S(b1-4)GlcNAc6S
# Outline: as §1
# GalNAc(a1-3)Gal = biological target: GalNAc(a1-3)Gal
# Outline: as §1
# GalNAc(a1-3)GalNAc = biological target: GalNAc(a1-3)GalNAc
# Outline: as §1
# GalNAc(b1-3)Gal = biological target: GalNAc(b1-3)Gal
# Outline: as §1
# [12] = biological target: GalNAc(b1-3)Gal(a1-4)Gal(b1-4)GlcNAc
# Outline: as §1
# GalNAc(b1-3)GalNAc = biological target: GalNAc(b1-3)GalNAc
# Outline: as §1
# GalNAc(b1-4)GlcNAc = biological target: GalNAc(b1-4)GlcNAc
# Outline: as §1
# Glc(a1-4)Glc = biological target: Glc(a1-4)Glc
# Outline: as §1
# Glc(a1-6)Glc(a1-6)Glc = biological target: Glc(a1-6)Glc(a1-6)Glc
# Outline: as §1
# Glc(b1-4)Glc = biological target: Glc(b1-4)Glc
# Outline: as §1
# Glc(b1-6)Glc = biological target: Glc(b1-6)Glc
# Outline: as §1
# GlcA(b1-3)Gal = biological target: GlcA(b1-3)Gal
# Outline: as §1
# GlcA(b1-3)GlcNAc = biological target: GlcA(b1-3)GlcNAc
# Outline: as §1
# GlcA(b1-6)Gal = biological target: GlcA(b1-6)Gal
# Outline: as §1
# [13] = biological target: GlcNAc(a1-3)Gal(b1-4)GlcNAc
# Outline: as §1
# [14] = biological target: GlcNAc(a1-6)Gal(b1-4)GlcNAc
# Outline: as §1
# [15] = biological target: GlcNAc(b1-2)Gal(b1-3)GalNAc
# Outline: as §1
# [16] = biological target: GlcNAc(b1-2)Man(a1-3)[GlcNAc(b1-2)Man(a1-6)]Man(b1-4)GlcNAc(b1-4)GlcNAc
# Outline: as §1
# GlcNAc(b1-3)Gal = biological target: GlcNAc(b1-3)Gal
# Outline: as §1
# [17] = biological target: GlcNAc(b1-3)Gal(b1-3)GalNAc
# Outline: as §1
binder,measurement,setting,value
"Codakine (Codakia orbicularis), Q3KVL7_9BIVA (protein) MKILVAVFLVLVVVGTAAAGCPDGWTQFLDLCYIYQSAKASWASAQSSCQALGGILAEPDTACENEVLIHMCRENGDAGSFGPWLGGQKVGGAWQWSSSGAAFDYLRWGPNEPNNSGGNEDCLHYNWLSWNDLRCHYQASYLCQRAAE",glycan array binding signal (z-score),[1],-0.271
same,glycan array binding signal (z-score),[2],-0.218
same,glycan array binding signal (z-score),[3],-0.375
same,glycan array binding signal (z-score),[4],-0.357
same,glycan array binding signal (z-score),[5],-0.221
same,glycan array binding signal (z-score),[6],-0.245
same,glycan array binding signal (z-score),[7],-0.242
same,glycan array binding signal (z-score),[8],-0.33
same,glycan array binding signal (z-score),[9],-0.328
same,glycan array binding signal (z-score),Gal3S(b1-3)GalNAc,-0.314
same,glycan array binding signal (z-score),Gal3S(b1-3)GlcNAc,-0.077
same,glycan array binding signal (z-score),[10],-0.195
same,glycan array binding signal (z-score),Gal3S(b1-4)Glc,-0.212
same,glycan array binding signal (z-score),Gal3S(b1-4)Glc6S,0.241
same,glycan array binding signal (z-score),Gal3S(b1-4)GlcNAc,-0.186
same,glycan array binding signal (z-score),Gal3S(b1-4)GlcNAc6S,-0.049
same,glycan array binding signal (z-score),[11],-0.177
same,glycan array binding signal (z-score),Gal3S4S(b1-4)GlcNAc,-0.091
same,glycan array binding signal (z-score),Gal3S6S(b1-4)GlcNAc,-0.214
same,glycan array binding signal (z-score),Gal3S6S(b1-4)GlcNAc6S,0.22
same,glycan array binding signal (z-score),Gal4S(b1-4)GlcNAc,-0.155
same,glycan array binding signal (z-score),Gal4S6S(b1-4)GlcNAc,-0.177
same,glycan array binding signal (z-score),Gal6S(b1-4)Glc,-0.229
same,glycan array binding signal (z-score),Gal6S(b1-4)Glc6S,0.037
same,glycan array binding signal (z-score),Gal6S(b1-4)GlcNAc,-0.136
same,glycan array binding signal (z-score),Gal6S(b1-4)GlcNAc6S,0.016
same,glycan array binding signal (z-score),GalNAc(a1-3)Gal,-0.32
same,glycan array binding signal (z-score),GalNAc(a1-3)GalNAc,-0.347
same,glycan array binding signal (z-score),GalNAc(b1-3)Gal,-0.313
same,glycan array binding signal (z-score),[12],-0.372
same,glycan array binding signal (z-score),GalNAc(b1-3)GalNAc,-0.34
same,glycan array binding signal (z-score),GalNAc(b1-4)GlcNAc,-0.32
same,glycan array binding signal (z-score),Glc(a1-4)Glc,-0.306
same,glycan array binding signal (z-score),Glc(a1-6)Glc(a1-6)Glc,-0.317
same,glycan array binding signal (z-score),Glc(b1-4)Glc,-0.419
same,glycan array binding signal (z-score),Glc(b1-6)Glc,-0.182
same,glycan array binding signal (z-score),GlcA(b1-3)Gal,-0.231
same,glycan array binding signal (z-score),GlcA(b1-3)GlcNAc,-0.159
same,glycan array binding signal (z-score),GlcA(b1-6)Gal,-0.302
same,glycan array binding signal (z-score),[13],-0.437
same,glycan array binding signal (z-score),[14],-0.28
same,glycan array binding signal (z-score),[15],-0.276
same,glycan array binding signal (z-score),[16],2.79
same,glycan array binding signal (z-score),GlcNAc(b1-3)Gal,-0.293
same,glycan array binding signal (z-score),[17],-0.195
